According to PubChem BioAssay AID588342 (National Center for Advancing Translational Sciences (NCATS), 2011):
Hit rate of the full screen: of about 360,000 compounds, about 25,000 (6.9%) were called active. Inconclusive results, whose numbers are uncertain, are shown with a selection of clear calls. Calls follow the shape of the dose curve; as a rule, active = well fitted inhibition curve with a large enough effect; inconclusive = small, poorly fitted or top-dose-only effect; inactive = flat fitted curve, though single readings scatter. A potency beside an inconclusive call is a rough fit, not a confirmed value.

Each compound was assayed against Luciferin 4-monooxygenase (Photinus pyralis) (UniProt P08659) (assay: qHTS profiling assay for firefly luciferase inhibitor/activator using purifed enzyme and Km concentrations of substrates (counterscreen for miR-21 project)). Conditions: purified FLuc, luminescence inhibition; series mostly up to 57.5 µM.
Chain of UniProt P08659 (P08659 whole entry, looked up): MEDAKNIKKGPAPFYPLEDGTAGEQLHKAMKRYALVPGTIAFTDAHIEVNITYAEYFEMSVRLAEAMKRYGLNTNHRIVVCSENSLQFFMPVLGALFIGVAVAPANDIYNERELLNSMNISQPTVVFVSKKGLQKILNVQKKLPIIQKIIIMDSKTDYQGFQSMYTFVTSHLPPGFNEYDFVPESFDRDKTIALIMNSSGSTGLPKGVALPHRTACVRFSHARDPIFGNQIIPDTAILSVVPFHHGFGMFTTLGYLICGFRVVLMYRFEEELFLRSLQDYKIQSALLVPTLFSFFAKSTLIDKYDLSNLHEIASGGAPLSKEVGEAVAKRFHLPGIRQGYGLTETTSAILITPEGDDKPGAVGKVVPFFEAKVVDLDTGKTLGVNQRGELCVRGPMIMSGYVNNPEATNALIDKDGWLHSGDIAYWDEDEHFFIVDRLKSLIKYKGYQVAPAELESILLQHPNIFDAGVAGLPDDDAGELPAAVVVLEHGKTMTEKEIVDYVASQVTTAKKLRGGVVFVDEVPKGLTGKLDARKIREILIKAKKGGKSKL
In short: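 Purified P. pyralis luciferase, 10 nM final, with Km-level 10 uM D-luciferin and 10 uM ATP in 50 mM Tris acetate pH 7.5, 10 mM Mg acetate, 0.01% Tween-20, 0.05% BSA; 6-point qHTS titration about 60 µM downward; luminescence read.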
Also: nearly all actives have a fitted effect of over 55% in size.
Potency is read from the fitted curve at half-maximal effect; tags tell the direction and shape of the fitted curve.

Row | Compound | Potency
1 | CN(Cc1ccccn1)C(=O)C1CCC(=O)N(Cc2cccc(C(F)(F)F)c2)C1 (configuration not stated) | inactive
2 | CCOc1ccc(S(=O)(=O)N(CC(=O)NCCSCc2ccc(C)cc2)c2ccccc2)cc1 | inactive
3 | Nc1c(C(=O)c2cccs2)oc2ccccc12 | active: 15.1 µM
4 | Cc1cc(C)c(Nc2nn3c(=O)c4cc5c(cc4nc3s2)OCO5)c(C)c1 | inconclusive: 37.9 µM [inhibitor, partial curve, poor fit]
5 | CCc1ccc(-c2nc(CSCC(=O)N3CCN(c4ccccn4)CC3)c(C)o2)cc1 | inconclusive: 37.9 µM [inhibitor, single point]
6 | CCN(C=NC1=NN(c2cccc(C(F)(F)F)c2)CC1)CC | inconclusive: 37.9 µM [inhibitor, partial curve, poor fit]
7 | COC(=O)C(CC(C)C)NC(=O)/C=C/c1ccccc1Cl (configuration not stated) | inconclusive: 37.9 µM [inhibitor, partial curve, poor fit]
8 | Fc1ccc2[nH]c3c(Cl)ncnc3c2c1 | inactive
9 | Cc1c(-c2ccccc2)c(=O)oc2ccc(O)cc12 | inconclusive: 26.9 µM [inhibitor, partial curve, poor fit]
10 | CCCC(=O)N1CCN(c2nc3ccccc3s2)CC1 | active: 7.57 µM
11 | COc1cccc(C(=O)Nc2ccc3oc(-c4ccc5ccccc5c4)nc3c2)c1 | inconclusive: 10.7 µM [inhibitor, partial curve]
12 | COc1ccc(/C=N/NC(=O)c2nnn(-c3nonc3N)c2-c2cccs2)c(OC)c1 | inconclusive: 4.78 µM [inhibitor, full curve]
13 | N/C(Cc1ccc(Cl)cc1Cl)=N\OC(=O)Cc1ccccc1 | active: 15.1 µM
14 | O=[N+]([O-])c1cc(/C=N/O)ccc1SCc1ccccc1Cl | inconclusive: 37.9 µM [inhibitor, partial curve, poor fit]
15 | CCc1ccc(S(=O)(=O)c2nnn3c2nc(NCc2cccs2)c2sccc23)cc1 | inactive
16 | Cc1cccc(C(=O)Nc2cccc(C(=O)OCc3cc(=O)n4c5c(sc4n3)CCCC5)c2)c1 | inconclusive: 3.38 µM [inhibitor, full curve]
17 | Cn1nccc1C(=O)NC1CCCc2c1cnn2-c1cc(F)cc(F)c1 (configuration not stated) | inconclusive: 19 µM [inhibitor, partial curve, poor fit]
18 | CCOC(=O)c1c(-c2ccccc2)csc1NC(=S)NC(=O)c1ccccc1 | inconclusive: 30.1 µM [inhibitor, partial curve, poor fit]
19 | N/C(=N\OC(=O)c1cccc(Br)c1)c1ccccc1 | active: 0.849 µM
20 | COc1ccccc1C(=O)NC(=O)COC(=O)C1(C)CC1(Cl)Cl (configuration not stated) | inconclusive: 37.9 µM [inhibitor, single point]
21 | O=C(CN1C(=O)c2ccccc2C1=O)NN1C(=O)c2ccccc2C1=O | inconclusive: 10.7 µM [inhibitor, partial curve, poor fit]
22 | CCC(C)(C)C1CCC2(CC1)NC(=S)N(c1ccccc1)N2 (configuration not stated) | inconclusive: 30.1 µM [inhibitor, partial curve, poor fit]
23 | Cc1ccc(NC(=O)N2CCC(=O)N2)cc1 | inconclusive: 30.1 µM [inhibitor, partial curve, poor fit]
24 | Cc1ccc2[nH]c3c(c2c1)CCCC3=O | inconclusive: 23.9 µM [inhibitor, partial curve]

Row | Compound | Potency
25 | Cc1nc(N)nc(N/N=C/c2c(F)cccc2Cl)n1 | inconclusive: 37.9 µM [inhibitor, partial curve, poor fit]
26 | Cc1cc(C)cc(NC(=O)Nc2cccc(S(N)(=O)=O)c2)c1 | active: 15.1 µM
27 | Cc1cccc(-c2cnn(-c3ccccc3)c2N)c1 | active: 6.75 µM
28 | COc1ccccc1C(=O)NCc1ccc2c(c1)CCN2C(=O)c1cccc(C)c1 | inactive
29 | O=C(NCc1cccs1)c1ccc(N2CCCCC2)nc1 | active: 21.3 µM
30 | CCOC(=O)c1cnn(-c2ccccc2)c1-n1cccc1C(=O)C(=O)Nc1ccccc1 | inactive
31 | Oc1ccc2ccccc2c1N=Nc1nccs1 | active: 19 µM
32 | Cc1ccc2ncnc(Nc3cccc([N+](=O)[O-])c3)c2c1 | inconclusive: 37.9 µM [inhibitor, partial curve, poor fit]
33 | CCn1nc(NS(=O)(=O)c2ccccc2)c2cc3ccc(C)cc3nc21 | inconclusive: 37.9 µM [inhibitor, single point]
34 | CCC(CC)c1nnc(NC(=O)/C=C/c2ccco2)s1 | inactive
35 | CC(C)(C)c1ccc(C(=O)NNC(=O)Cc2cccc3ccccc23)cc1 | active: 15.1 µM
36 | COc1ccc(CN2CCN(C(=O)Cn3ncn4cccc4c3=O)CC2)c(OC)c1OC | inactive
37 | COc1ccc2[nH]c(C(=O)O)c(NC(=O)c3cc(OC)c(OC)c(OC)c3)c2c1 | inconclusive: 23.9 µM [inhibitor, partial curve]
38 | CCc1ccc(C(=O)N/N=C(\C)c2ccncc2)s1 | active: 16.9 µM
39 | CCN1CCN(c2ccc(NC(=O)c3ccc(F)cc3)cc2Cl)CC1 | inconclusive: 37.9 µM [inhibitor, partial curve, poor fit]
40 | CC(C)c1nnc(NC(=O)C2CCCO2)s1 (configuration not stated) | inactive
41 | Cc1ccnc(NC(=O)c2ccccc2NC(=O)c2ccccc2)c1 | inconclusive: 21.3 µM [inhibitor, single point]
42 | CC(C)Oc1ccc(-c2cc(=O)[nH]c(=O)[nH]2)cc1 | inconclusive: 19 µM [inhibitor, partial curve]
43 | CCOc1ccc(CNS(=O)(=O)c2cccs2)cc1OCC | inactive
44 | Cc1ccc(C(=O)Nc2scc(-c3ccccc3)c2C(=O)O)o1 | active: 15.1 µM
45 | Cc1ccc(OCCC(=O)OCC(=O)Nc2cc(C)nn2-c2ccccc2)cc1 | inconclusive: 26.9 µM [inhibitor, partial curve, poor fit]
46 | COc1ccc(C(=O)NNC(=O)Nc2ccc(Cl)cc2)cc1 | inactive
47 | CN1/C(=C\C=C2/SC(=S)NC2=O)C(C)(C)c2ccccc21 | inconclusive: 37.9 µM [inhibitor, single point]
48 | CCOC(=O)N1CCc2c(sc(NCc3ccc(OCC)cc3)c2C(=O)Nc2ccc(OC)cc2OC)C1 | active: 15.1 µM

Row | Compound | Potency
49 | O=C(NC1CCCC1)c1ccc(CSc2nc3ccncc3n2Cc2ccccc2F)cc1 | inconclusive: 26.9 µM [inhibitor, partial curve]
50 | O=C(NCC1CCCO1)C(c1ccc(F)cc1)N(C(=O)Cn1nnc(-c2ccc(F)cc2)n1)c1cccc(O)c1 (configuration not stated) | inactive
51 | Cc1ccc(N2NC(=O)/C(=C\c3cc4c(cc3[N+](=O)[O-])OCO4)C2=O)cc1C | inconclusive: 37.9 µM [inhibitor, single point]
52 | CCc1ccc(CCN2C(=O)c3ccccc3C2=O)nc1 | inconclusive: 23.9 µM [inhibitor, partial curve, poor fit]
53 | Cc1noc(C)c1C(=O)Nc1nc(-c2cccs2)cs1 | inconclusive: 21.3 µM [inhibitor, partial curve]
54 | CCOC(=O)c1cc2cc(OC)ccc2[nH]1 | active: 12 µM
55 | CC1=C(C(=O)Nc2cccnc2)C(c2ccc(F)cc2)n2nc(SCc3ccccc3F)nc2N1 (configuration not stated) | inactive
56 | COc1cccc(OCc2cc(C(=O)N3CCCC3c3ccccn3)no2)c1 (configuration not stated) | active: 15.1 µM
57 | Cn1cccc1CC(=O)N/N=C/C(Cl)=C/c1ccccc1 | inconclusive: 26.9 µM [inhibitor, single point]
58 | Cc1ccc2nc(-c3ccc(N4C(=O)CC(N5CCCC(C)C5)C4=O)cc3)sc2c1 (configuration not stated) | active: 15.1 µM
59 | CCCc1cc(=O)[nH]c(SCc2cc(=O)oc3c(C)c(C)ccc23)n1 | inactive
60 | Cn1nnc2cc(C(=O)Nc3ccccc3)ccc21 | inconclusive: 30.1 µM [inhibitor, single point]
61 | O=C(Nc1cccs1)Nc1cc(C(F)(F)F)ccc1Cl | inconclusive: 37.9 µM [inhibitor, partial curve, poor fit]
62 | CCOC(=O)c1c(-c2ccccc2)nc2ccc(Cl)cn12 | inconclusive: 37.9 µM [inhibitor, partial curve, poor fit]
63 | Oc1[nH]c2ccccc2c1N=Nc1ccc(C(F)(F)F)cn1 | inconclusive: 4.78 µM [inhibitor, partial curve, poor fit]
64 | COc1ccc(NC(=O)C2CC(c3c(F)cccc3Cl)=NO2)cc1 (configuration not stated) | inconclusive: 37.9 µM [inhibitor, partial curve, poor fit]
65 | CC(C)CCNC(=O)CCCN1C(=O)c2ccccc2Sc2ncccc21 | inactive
66 | CN(C)C(=O)c1cc(-c2ccccc2)no1 | inconclusive: 37.9 µM [inhibitor, partial curve, poor fit]
67 | NNC(=O)c1ccc(COc2cccc3ccccc23)o1 | inconclusive: 26.9 µM [inhibitor, partial curve, poor fit]
68 | CC(C)c1ccc2c(c1)C(=O)NC(C)(C)C2 | inconclusive: 23.9 µM [inhibitor, partial curve, poor fit]
69 | Cc1ccc(CNC(=O)CSCc2cccc(F)c2)cc1 | inconclusive: 37.9 µM [inhibitor, single point]
70 | CC1=CC(C)(C)Nc2ccc(OC(=O)CCN3C(=O)c4ccccc4C3=O)cc21 | inconclusive: 21.3 µM [inhibitor, partial curve, poor fit]
71 | CC(=O)Nc1ccc2nc(C3CC3)n(Cc3ccc(Cl)cc3)c(=O)c2c1 | active: 21.3 µM
72 | Cc1ccc(/C=C/C(=O)OCC(=O)Nc2cccnc2Cl)cc1 | inconclusive: 21.3 µM [inhibitor, partial curve, poor fit]
